{"source": "PubChem BioAssay (NCATS)", "key": {"[1]": {"target": "Rap guanine nucleotide exchange factor 3 (Homo sapiens) (UniProt O95398)", "sequence (O95398 whole entry, looked up)": "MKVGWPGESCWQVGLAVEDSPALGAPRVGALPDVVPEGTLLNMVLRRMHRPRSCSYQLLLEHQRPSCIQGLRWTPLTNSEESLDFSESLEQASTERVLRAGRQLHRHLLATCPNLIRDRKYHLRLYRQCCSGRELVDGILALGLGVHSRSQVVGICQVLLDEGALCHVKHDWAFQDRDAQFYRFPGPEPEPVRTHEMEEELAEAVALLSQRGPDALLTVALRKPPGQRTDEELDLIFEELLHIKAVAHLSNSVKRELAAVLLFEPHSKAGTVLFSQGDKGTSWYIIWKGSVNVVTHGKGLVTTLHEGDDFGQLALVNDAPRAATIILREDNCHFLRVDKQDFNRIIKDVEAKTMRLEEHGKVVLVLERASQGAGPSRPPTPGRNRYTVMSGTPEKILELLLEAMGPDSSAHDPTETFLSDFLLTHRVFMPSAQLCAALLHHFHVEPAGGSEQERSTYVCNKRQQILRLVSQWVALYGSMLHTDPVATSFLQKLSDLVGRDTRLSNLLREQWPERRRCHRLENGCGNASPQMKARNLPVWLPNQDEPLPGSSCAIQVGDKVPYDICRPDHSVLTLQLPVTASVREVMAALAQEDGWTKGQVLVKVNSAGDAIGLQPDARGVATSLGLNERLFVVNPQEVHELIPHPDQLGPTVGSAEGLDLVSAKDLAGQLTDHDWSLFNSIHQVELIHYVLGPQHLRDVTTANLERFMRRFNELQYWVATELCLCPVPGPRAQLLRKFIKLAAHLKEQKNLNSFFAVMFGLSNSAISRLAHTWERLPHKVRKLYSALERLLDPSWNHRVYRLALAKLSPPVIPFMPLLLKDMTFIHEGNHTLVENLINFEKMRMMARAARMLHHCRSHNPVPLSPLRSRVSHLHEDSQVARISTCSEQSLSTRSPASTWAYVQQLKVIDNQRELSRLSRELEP", "assay": "Confirmatory qHTS for antagonist of cAMP-regulated guanine nucleotide exchange factor 3 (EPAC1) (AID 1645880); further: nearly all actives have a fitted effect of over 55% in size;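 on activity, negative = inhibition: plate controls were DMSO only for no effect and full effect of the ATA control for full effect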", "details": "EPAC1 Rap1B-BODIPY-GDP exchange, fluorescence; activity, negative = inhibition: at 115 µM (top of the series)", "method_in_brief": "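Nucleotide exchange uses 100 nM EPAC1, 250 nM RAP1B-BODIPY-GDP and 50 uM GDP, with compounds in a concentration-titration series. After 5 min at room temperature, fluorescence (480 nm ex/540 nm em) is read every 5 min for 30 min. Data are normalized to control ATA and DMSO.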"}, "[2]": {"target": "Rap guanine nucleotide exchange factor 4 (Homo sapiens) (UniProt Q8WZA2)", "sequence (Q8WZA2 whole entry, looked up)": "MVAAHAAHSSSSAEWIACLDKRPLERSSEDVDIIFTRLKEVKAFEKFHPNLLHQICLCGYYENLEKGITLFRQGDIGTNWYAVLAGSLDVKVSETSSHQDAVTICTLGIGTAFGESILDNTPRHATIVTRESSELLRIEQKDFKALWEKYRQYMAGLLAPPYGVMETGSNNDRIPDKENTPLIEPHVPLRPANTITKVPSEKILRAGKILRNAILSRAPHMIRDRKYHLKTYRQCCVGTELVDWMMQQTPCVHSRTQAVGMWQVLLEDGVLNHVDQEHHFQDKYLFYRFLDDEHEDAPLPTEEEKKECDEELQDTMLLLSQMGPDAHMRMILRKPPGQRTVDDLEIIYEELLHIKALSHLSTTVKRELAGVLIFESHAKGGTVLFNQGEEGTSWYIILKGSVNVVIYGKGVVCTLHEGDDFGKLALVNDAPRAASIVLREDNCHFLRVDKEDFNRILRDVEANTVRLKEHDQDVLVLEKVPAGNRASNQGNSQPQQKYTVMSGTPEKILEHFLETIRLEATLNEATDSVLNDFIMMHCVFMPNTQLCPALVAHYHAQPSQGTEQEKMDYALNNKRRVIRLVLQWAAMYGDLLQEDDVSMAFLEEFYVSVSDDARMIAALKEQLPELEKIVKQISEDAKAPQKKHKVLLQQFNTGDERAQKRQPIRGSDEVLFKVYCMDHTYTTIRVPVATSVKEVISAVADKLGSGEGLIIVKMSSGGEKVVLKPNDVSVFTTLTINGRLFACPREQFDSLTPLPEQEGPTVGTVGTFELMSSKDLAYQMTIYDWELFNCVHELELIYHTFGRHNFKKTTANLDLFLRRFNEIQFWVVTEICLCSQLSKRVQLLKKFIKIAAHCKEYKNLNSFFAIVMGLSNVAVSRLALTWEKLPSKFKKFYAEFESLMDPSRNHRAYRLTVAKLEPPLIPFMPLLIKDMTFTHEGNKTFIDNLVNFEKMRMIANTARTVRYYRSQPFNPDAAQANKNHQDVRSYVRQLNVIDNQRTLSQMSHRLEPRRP", "assay": "Confirmatory qHTS for agonist of cAMP-regulated guanine nucleotide exchange factor 4 (EPAC2) (AID 1645884);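 further: nucleotide exchange releases bodipy-GDP from Rap1 and this lowers its fluorescence; nearly all actives have a fitted effect of over 65% in size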; on activation: on the % scale 0 is the no-effect control and ±100 the full control effect", "details": "EPAC2 GEF activity, Rap1B-BODIPY-GDP fluorescence; activation: at 154 µM (top of the series), percent relative to cAMP agonist control"}, "[3]": {"target": "Rap guanine nucleotide exchange factor 4 (Homo sapiens) (UniProt Q8WZA2)", "assay": "Confirmatory qHTS for antagonist of cAMP-regulated guanine nucleotide exchange factor 4 (EPAC2) (AID 1645885); further: nearly all actives have a fitted effect of over 25% in size; on activity change, negative = inhibition: on the % scale 0 is the no-effect control and ±100 the full control effect", "details": "activity change, negative = inhibition: at 12.7 µM (top of the series) unless noted"}, "[4]": {"target": "Rap guanine nucleotide exchange factor 3 (Homo sapiens) (UniProt O95398)", "assay": "Counterscreen qHTS for agonist of cAMP-regulated guanine nucleotide exchange factor 3 (EPAC1) (AID 1645889); further: nearly all actives have a fitted effect of over 40% in size; on activation: % of control where 0% means no effect", "details": "EPAC1 Rap1B-BODIPY-GDP exchange, fluorescence; activation: at 154 µM (top of the series) unless noted", "method_in_brief": "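Measured: fluorescence of BODIPY-GDP bound to Rap1B, which falls as exchange proceeds. Conditions include 50 uM competing GDP, 5 and 30 min reads, and a later cAMP challenge for antagonist detection.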"}, "[5]": {"target": "Mitogen-activated protein kinase 10 (Mus musculus) (UniProt Q61831)", "assay": "JNK3 AlphaScreen Assay (AID 530; active means well fitted curve in either direction with a large enough effect, not every such curve was filed as active; inconclusive means small, poorly fitted or top-dose-only effect, or another doubt;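 further: kinase came from lysate of stimulated human HepG2 cells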)", "details": "JNK3 lysate, c-Jun phosphorylation; activity change, negative = inhibition: at 57.1 µM (top of the series)", "method_in_brief": "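JNK3 came from HepG2 lysates pre-activated with IL-1beta and TNF-alpha and phosphorylated biotinylated GST-cJun (1-79) at 10 uM ATP, pH 7.6, room temperature. Compounds were titrated. AlphaScreen signal used anti-phospho-cJun (Ser73) antibody.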"}, "[6]": {"target": "3',5'-cyclic-AMP phosphodiesterase 4B (Homo sapiens) (UniProt Q07343)", "sequence (Q07343 whole entry, looked up)": "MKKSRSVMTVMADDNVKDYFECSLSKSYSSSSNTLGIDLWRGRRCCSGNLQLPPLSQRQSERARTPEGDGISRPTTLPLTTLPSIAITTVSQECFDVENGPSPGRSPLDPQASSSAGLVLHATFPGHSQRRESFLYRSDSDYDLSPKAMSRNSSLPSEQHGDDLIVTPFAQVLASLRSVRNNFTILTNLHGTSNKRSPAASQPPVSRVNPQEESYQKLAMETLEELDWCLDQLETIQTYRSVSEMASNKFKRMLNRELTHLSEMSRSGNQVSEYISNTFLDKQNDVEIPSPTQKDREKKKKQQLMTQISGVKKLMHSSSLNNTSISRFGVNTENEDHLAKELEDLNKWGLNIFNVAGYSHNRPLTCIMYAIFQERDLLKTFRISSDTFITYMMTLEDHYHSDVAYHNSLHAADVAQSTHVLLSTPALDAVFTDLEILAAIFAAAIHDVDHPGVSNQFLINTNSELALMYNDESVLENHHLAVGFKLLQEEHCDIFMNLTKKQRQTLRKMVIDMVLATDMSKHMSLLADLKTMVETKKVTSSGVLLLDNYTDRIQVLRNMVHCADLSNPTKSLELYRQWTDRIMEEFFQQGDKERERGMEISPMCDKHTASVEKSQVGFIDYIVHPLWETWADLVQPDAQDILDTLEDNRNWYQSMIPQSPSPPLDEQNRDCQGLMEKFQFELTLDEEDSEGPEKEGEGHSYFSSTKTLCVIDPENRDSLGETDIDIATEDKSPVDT", "assay": "qHTS Assay for Inhibitors of PDE-IV (AID 607; active means well fitted activation curve with a large enough effect in the main read-out, with a control signal flat, not every such curve was filed as active; inconclusive means small, poorly fitted or top-dose-only effect, or effect the other way, or a change in a side signal)", "details": "HEK293 ACTOne CNG channel cells, membrane potential fluorescence; activation (PDE inhibition): at 22.9 µM (top of the series)", "method_in_brief": "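Live HEK293 cells with a modified cyclic nucleotide-gated (CNG) channel report intracellular cAMP via membrane-potential dye fluorescence (ex 535/em 590 nm). Endogenous PDE-IV was targeted. Compounds were tested at up to 22.9 uM final; RO 20-1724 100 uM served as control.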"}, "[7]": {"target": "DNA polymerase iota (Homo sapiens) (UniProt Q9UNA4)", "sequence (Q9UNA4 whole entry, looked up)": "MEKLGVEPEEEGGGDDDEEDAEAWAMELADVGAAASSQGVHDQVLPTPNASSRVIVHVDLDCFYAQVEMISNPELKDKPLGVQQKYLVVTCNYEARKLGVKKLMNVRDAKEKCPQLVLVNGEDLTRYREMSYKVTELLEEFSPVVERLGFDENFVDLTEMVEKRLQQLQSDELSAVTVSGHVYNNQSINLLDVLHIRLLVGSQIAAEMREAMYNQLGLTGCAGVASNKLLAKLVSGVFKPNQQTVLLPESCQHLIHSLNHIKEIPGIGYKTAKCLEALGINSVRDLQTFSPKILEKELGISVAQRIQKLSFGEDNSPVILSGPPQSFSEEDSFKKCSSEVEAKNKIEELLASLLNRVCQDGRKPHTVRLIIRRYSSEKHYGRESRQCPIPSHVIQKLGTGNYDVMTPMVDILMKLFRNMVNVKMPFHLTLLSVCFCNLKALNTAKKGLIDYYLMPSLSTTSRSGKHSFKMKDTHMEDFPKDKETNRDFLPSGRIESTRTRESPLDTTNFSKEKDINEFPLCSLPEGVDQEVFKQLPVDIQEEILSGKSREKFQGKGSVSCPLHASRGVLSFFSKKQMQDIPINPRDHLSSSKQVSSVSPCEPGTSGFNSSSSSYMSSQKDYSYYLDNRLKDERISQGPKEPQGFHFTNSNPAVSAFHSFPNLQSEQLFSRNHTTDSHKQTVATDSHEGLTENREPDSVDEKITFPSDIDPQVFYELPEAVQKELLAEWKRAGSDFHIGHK", "assay": "qHTS for Inhibitors of Polymerase Iota: Confirmatory Assay for Cherry-picked Compounds (AID 720496)", "details": "Pol iota primer extension, TAMRA/BHQ fluorescence", "method_in_brief": "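Read-out is TAMRA fluorescence (525 nm excitation, 598 nm emission) at 0 and 10 min. It reflects strand displacement from a BHQ-2-quenched template by 10 nM Pol iota, with 50 nM final substrate after 15 min compound preincubation.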"}}, "note": "Where “and” joins values, the source holds several entries; their conditions need not be identical. Equal values may be shown once. Inconclusive results, whose numbers are uncertain, are shown with a selection of clear calls. Where the call is inconclusive, the potency comes from a doubtful curve fit. Calls of active or inactive are those of the source. Unless noted, the call rests on the fitted dose curve; in most records, active means well fitted curve in the direction sought with a large enough effect; inconclusive means small, poorly fitted or top-dose-only effect, or another doubt; inactive means no such curve, though single readings can be large; an effect the other way counts as inactive or inconclusive. Potency means the concentration at half of the fitted maximal effect; tags describe the fitted curve by direction and shape."}
{"smiles": "Cc1cccc2sc(N(Cc3cccnc3)C(=O)c3cccs3)nc12", "values": [{"measurement": "Potency", "setting": "[1]", "result": "inconclusive: 95.3 µM [inhibitor, partial curve, poor fit]"}, {"measurement": "Potency", "setting": "[2]", "result": "inconclusive: 56.2 µM [activator, partial curve, poor fit]"}, {"measurement": "Potency", "setting": "[3]", "result": "inactive"}, {"measurement": "Potency", "setting": "[4]", "result": "active: 25.1 µM"}]}
{"smiles": "COc1c(-c2ccccc2)oc2c(ccc3occc32)c1=O", "values": [{"measurement": "Potency", "setting": "[5]", "result": "inconclusive: 0.316 µM [activator, full curve, poor fit]"}, {"measurement": "Potency", "setting": "[6]", "result": "inconclusive: 19 µM [rising, partial curve]"}, {"measurement": "Potency", "setting": "[1]", "result": "inconclusive: 26.9 µM [inhibitor, partial curve, poor fit]"}, {"measurement": "Potency", "setting": "[2]", "result": "inconclusive: 50 µM [activator, partial curve, poor fit]"}, {"measurement": "Potency", "setting": "[3]", "result": "inconclusive: 3.5 µM [inhibitor, full curve] and inconclusive: 19 µM [inhibitor, full curve]"}, {"measurement": "Potency", "setting": "[4]", "result": "inactive"}]}
{"smiles": "Cc1ccc(/C=C2\\S/C(=N/S(=O)(=O)c3cccs3)NC2=O)cc1", "values": [{"measurement": "Potency", "setting": "[1]", "result": "active: 67.5 µM"}, {"measurement": "Potency", "setting": "[2]", "result": "inactive"}, {"measurement": "Potency", "setting": "[3]", "result": "inconclusive: 30.1 µM [inhibitor, full curve]"}, {"measurement": "Potency", "setting": "[4]", "result": "inactive"}]}
{"smiles": "O=C(Nc1ccc(NC(=O)c2ccco2)c(Cl)c1)c1ccc2c(c1)OCCO2", "values": [{"measurement": "Potency", "setting": "[7]", "result": "inconclusive: 33.6 µM [inhibitor, partial curve]"}, {"measurement": "Potency", "setting": "[1]", "result": "inconclusive: 84.9 µM [inhibitor, partial curve]"}, {"measurement": "Potency", "setting": "[2]", "result": "inactive"}, {"measurement": "Potency", "setting": "[3]", "result": "inactive"}, {"measurement": "Potency", "setting": "[4]", "result": "inactive"}]}
{"smiles": "O=C1NNC(c2ccccc2)=N/C1=C\\c1ccccc1Cl", "values": [{"measurement": "Potency", "setting": "[1]", "result": "inconclusive: 95.3 µM [inhibitor, single point]"}, {"measurement": "Potency", "setting": "[2]", "result": "inconclusive: 112 µM [activator, partial curve, poor fit]"}, {"measurement": "activation", "setting": "[4]", "result": "inconclusive: 46.5% [activator]"}]}
{"smiles": "Cc1[nH]c(=O)nc(SCc2cccc(Cl)c2)c1C#N", "values": [{"measurement": "Potency", "setting": "[1]", "result": "inconclusive: 75.7 µM [inhibitor, partial curve]"}, {"measurement": "Potency", "setting": "[2]", "result": "inactive"}, {"measurement": "Potency", "setting": "[4]", "result": "inactive"}]}
{"smiles": "COc1ccc(NC(=O)c2ccco2)cc1NC(=O)C(C)Oc1ccc(Cl)cc1Cl", "note": "(stereo unspecified)", "values": [{"measurement": "Potency", "setting": "[1]", "result": "inconclusive: 95.3 µM [inhibitor, single point]"}, {"measurement": "Potency", "setting": "[2]", "result": "inactive"}, {"measurement": "activation", "setting": "[4]", "result": "inconclusive: 28.6% [activator]"}]}
{"smiles": "CCC(COC)Oc1cc(NCc2ccccc2)c2ncn(C(C)C)c2c1", "note": "(stereo unspecified)", "values": [{"measurement": "Potency", "setting": "[1]", "result": "inactive"}, {"measurement": "Potency", "setting": "[2]", "result": "inactive"}, {"measurement": "Potency", "setting": "[4]", "result": "active: 7.94 µM"}]}
{"smiles": "CCCCN1CC(c2nc3ccccc3n2CCCCOc2cc(C)ccc2C)CC1=O", "note": "(stereo unspecified)", "values": [{"measurement": "Potency", "setting": "[1]", "result": "inconclusive: 95.3 µM [inhibitor, partial curve, poor fit]"}, {"measurement": "Potency", "setting": "[2]", "result": "inactive"}, {"measurement": "Potency", "setting": "[4]", "result": "inconclusive: 3.98 µM [activator, partial curve, poor fit]"}]}
{"smiles": "O=C(NCc1cccc(Cl)c1)c1ccc(S(=O)(=O)Nc2cccc(C(F)(F)F)c2)cc1", "values": [{"measurement": "Potency", "setting": "[1]", "result": "inconclusive: 33.8 µM [inhibitor, partial curve]"}, {"measurement": "Potency", "setting": "[2]", "result": "inactive"}, {"measurement": "Potency", "setting": "[4]", "result": "inactive"}]}
{"smiles": "Cc1ccc2c(c1)N(Cc1cccc(Cl)c1)C(=O)c1cccnc1O2", "values": [{"measurement": "Potency", "setting": "[1]", "result": "inconclusive: 60.1 µM [inhibitor, partial curve, poor fit]"}, {"measurement": "Potency", "setting": "[2]", "result": "inconclusive: 100 µM [activator, partial curve, poor fit]"}, {"measurement": "activation", "setting": "[4]", "result": "inconclusive: 38.2% [activator]"}]}
{"smiles": "CN1N=C(C(C)(C)C)CC1=O", "values": [{"measurement": "Potency", "setting": "[1]", "result": "inactive"}, {"measurement": "Potency", "setting": "[2]", "result": "inactive"}, {"measurement": "Potency", "setting": "[4]", "result": "inconclusive: 31.6 µM [activator, partial curve]"}]}
{"smiles": "COc1ccc(C(NC(=O)c2cc(OC)ccc2OC)c2ccccc2)cc1", "note": "(stereo unspecified)", "values": [{"measurement": "Potency", "setting": "[1]", "result": "inactive"}, {"measurement": "Potency", "setting": "[2]", "result": "inconclusive: 112 µM [activator, partial curve, poor fit]"}, {"measurement": "Potency", "setting": "[4]", "result": "inconclusive: 17.8 µM [activator, single point]"}]}
{"smiles": "O=C(CCl)N1c2ccccc2Oc2ccc3ccccc3c21", "values": [{"measurement": "Potency", "setting": "[1]", "result": "inconclusive: 84.9 µM [inhibitor, partial curve, poor fit]"}, {"measurement": "Potency", "setting": "[2]", "result": "inactive"}, {"measurement": "Potency", "setting": "[4]", "result": "active: 35.5 µM"}]}
{"smiles": "Cc1ccc2c(c1)-c1c(cnn1CC(=O)N1CCN(c3cccc(C(F)(F)F)c3)CC1)CO2", "values": [{"measurement": "Potency", "setting": "[1]", "result": "inconclusive: 75.7 µM [inhibitor, partial curve, poor fit]"}, {"measurement": "Potency", "setting": "[2]", "result": "inconclusive: 31.6 µM [activator, partial curve, poor fit]"}, {"measurement": "activation", "setting": "[4]", "result": "inconclusive: 29.8% [activator]"}]}
{"smiles": "COc1cc(NS(=O)(=O)c2ccc(NC(=O)/C(=C/c3ccccc3Cl)NC(=O)c3ccccc3)cc2)nc(OC)n1", "values": [{"measurement": "Potency", "setting": "[1]", "result": "active: 84.9 µM"}, {"measurement": "Potency", "setting": "[2]", "result": "inactive"}, {"measurement": "Potency", "setting": "[4]", "result": "inconclusive: 0.0112 µM [activator, full curve, poor fit]"}]}
{"smiles": "CCOc1ccc(NC(=O)c2ccc(NC(=O)COC(=O)c3ccc(NC(=O)CC#N)cc3)cc2)cc1", "values": [{"measurement": "Potency", "setting": "[1]", "result": "inactive"}, {"measurement": "Potency", "setting": "[2]", "result": "inactive"}, {"measurement": "activation", "setting": "[4]", "result": "inconclusive: 33.8% [activator]"}]}
{"smiles": "CN1OC[C@@H]2CN(S(=O)(=O)c3cc(Cl)cc(Cl)c3)[C@H](c3ccc(-c4ccc(C#N)cc4)cc3)C[C@@H]21", "values": [{"measurement": "Potency", "setting": "[1]", "result": "inactive"}, {"measurement": "Potency", "setting": "[2]", "result": "inactive"}, {"measurement": "activation", "setting": "[4]", "result": "inconclusive: 34.9% [activator]"}]}
